Reference: the supplement of paper PMC4967469
By IC50 is meant the dose at which the fit gives 50% viability; a fit beyond the top or the lowest dose is shown as a bound at that dose. For AUC the same curve is integrated over the 256-fold range of doses and scaled to a fraction; the more sensitive the line, the further below 1. For some assays here: Where the top dose is marked as inferred, it was calculated from the reported fits.

Legend:
Assay in all cases: Viability of human cancer cell lines after 72 h of drug (GDSC screen)
[1] = compound: Cc1cccc(Nc2nc(-c3ccncc3)cs2)c1 [STF-62247]; settings: top dose 10.24 µM; top dose inferred
Procedure: (§1)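 Human cancer cell lines in 384-well plates, medium with 10% serum, drug for 72 h over a 256-fold dose range (nine 2-fold or five 4-fold steps up to the top dose). Adherent lines were fixed and stained with the nucleic acid dye Syto60, suspension lines read with resazurin; signal relative to control wells, capped at 0 and 100%. One two-parameter sigmoid per drug and line, fitted in a mixed model over all curves with the slope shared within a line.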

[2] = compound: COC1=CC(c2cc3ccccc3[nH]2)=N/C1=C\c1[nH]c(C)cc1C [Obatoclax mesylate]; settings: top dose 16 µM
Procedure: as §1

[3] = compound: Cc1cnc(CNC(=O)c2c(=O)c3ccc(N4CCCN(C)CC4)nc3n3c2sc2ccccc23)cn1 [CX-5461]; settings: top dose 10.24 µM; top dose inferred
Procedure: as §1

[4] = compound: COCC(=O)NC/C=C/c1ccc2ncnc(Nc3ccc(Oc4ccc(C)nc4)c(C)c3)c2c1 [CP724714]; settings: top dose 10.24 µM; top dose inferred
Procedure: as §1

Row | Cell Line | AUC [1] | IC50 [1] | AUC [2] | IC50 [2] | AUC [3] | IC50 [3] | AUC [4] | IC50 [4]
1 | BFTC-909 (kidney, adherent) | 0.986 | > 10.2 µM | 0.392 | 0.509 µM | 0.988 | > 10.2 µM | 0.979 | > 10.2 µM
2 | BHT-101 (thyroid, adherent) | 0.9 | > 10.2 µM | 0.056 | < 0.0625 µM | 0.939 | > 10.2 µM | 0.973 | > 10.2 µM
3 | BHY (head and neck, adherent) | 0.979 | > 10.2 µM | 0.033 | < 0.0625 µM | 0.778 | 4.17 µM | 0.97 | > 10.2 µM
4 | BICR10 (head and neck, adherent) | 0.985 | > 10.2 µM | 0.644 | 2.66 µM | 0.985 | > 10.2 µM | 0.985 | > 10.2 µM
5 | BICR22 (head and neck, adherent) | 0.982 | > 10.2 µM | 0.546 | 1.36 µM | 0.981 | > 10.2 µM | 0.97 | > 10.2 µM
6 | BICR31 (head and neck, adherent) | 0.988 | > 10.2 µM | 0.365 | 0.421 µM | 0.988 | > 10.2 µM | 0.979 | > 10.2 µM
7 | BICR78 (head and neck, adherent) | 0.983 | > 10.2 µM | 0.443 | 0.683 µM | 0.966 | > 10.2 µM | 0.971 | > 10.2 µM
8 | BPH-1 (prostate, adherent) | 0.958 | > 10.2 µM | 0.461 | 0.774 µM | 0.779 | 4.64 µM | 0.837 | 7.92 µM
9 | BT-20 (breast, adherent) | 0.982 | > 10.2 µM | 0.679 | 3.61 µM | 0.979 | > 10.2 µM | 0.976 | > 10.2 µM
10 | BT-483 (breast, adherent) | 0.977 | > 10.2 µM | 0.641 | 3.49 µM | 0.891 | > 10.2 µM | 0.921 | > 10.2 µM
11 | BxPC-3 (pancreas, adherent) | 0.983 | > 10.2 µM | 0.187 | 0.0999 µM | 0.948 | > 10.2 µM | 0.984 | > 10.2 µM
12 | C3A (liver, adherent) | 0.987 | > 10.2 µM | 0.267 | 0.209 µM | 0.988 | > 10.2 µM | 0.988 | > 10.2 µM
13 | C32 (melanoma, adherent) | 0.982 | > 10.2 µM | 0.421 | 0.598 µM | 0.987 | > 10.2 µM | 0.987 | > 10.2 µM
14 | C-4-I (cervix, adherent) | 0.983 | > 10.2 µM | 0.448 | 0.711 µM | 0.986 | > 10.2 µM | 0.976 | > 10.2 µM
15 | C-33-A (cervix, adherent) | 0.946 | > 10.2 µM | 0.044 | < 0.0625 µM | 0.786 | 4.42 µM | 0.924 | > 10.2 µM
16 | CAKI-1 (kidney, adherent) | 0.938 | > 10.2 µM | 0.58 | 1.84 µM | 0.904 | > 10.2 µM | 0.942 | > 10.2 µM

Row | Cell Line | AUC [1] | IC50 [1] | AUC [2] | IC50 [2] | AUC [3] | IC50 [3] | AUC [4] | IC50 [4]
17 | CAL-12T (non-small cell lung carcinoma, adherent) | 0.928 | > 10.2 µM | 0.075 | < 0.0625 µM | 0.618 | 1.41 µM | 0.909 | > 10.2 µM
18 | CAL-27 (head and neck, adherent) | 0.984 | > 10.2 µM | 0.128 | 0.0635 µM | 0.898 | > 10.2 µM | 0.946 | > 10.2 µM
19 | CAL-29 (bladder, adherent) | 0.985 | > 10.2 µM | 0.606 | 2.01 µM | 0.98 | > 10.2 µM | 0.968 | > 10.2 µM
20 | CAL-33 (head and neck, adherent) | 0.985 | > 10.2 µM | 0.398 | 0.524 µM | 0.917 | > 10.2 µM | 0.96 | > 10.2 µM
21 | CAL-39 (cervix, adherent) | 0.986 | > 10.2 µM | 0.28 | 0.231 µM | 0.808 | 5.55 µM | 0.983 | > 10.2 µM
22 | CAL-51 (breast, adherent) | 0.991 | > 10.2 µM | 0.115 | 0.0743 µM | 0.984 | > 10.2 µM | 0.984 | > 10.2 µM
23 | CAL-54 (kidney, adherent) | 0.985 | > 10.2 µM | 0.534 | 1.25 µM | 0.985 | > 10.2 µM | 0.985 | > 10.2 µM
24 | CAL-62 (thyroid, adherent) | 0.984 | > 10.2 µM | 0.091 | < 0.0625 µM | 0.953 | > 10.2 µM | 0.988 | > 10.2 µM
25 | CAL-72 (osteosarcoma, adherent) | 0.982 | > 10.2 µM | 0.277 | 0.205 µM | 0.984 | > 10.2 µM | 0.984 | > 10.2 µM
26 | CAL-78 (chondrosarcoma, adherent) | 0.971 | > 10.2 µM | 0.758 | 6.3 µM | 0.97 | > 10.2 µM | 0.986 | > 10.2 µM
27 | CAL-85-1 (breast, adherent) | 0.915 | > 10.2 µM | 0.088 | < 0.0625 µM | 0.599 | 1.29 µM | 0.924 | > 10.2 µM
28 | CAL-120 (breast, adherent) | 0.976 | > 10.2 µM | 0.298 | 0.227 µM | 0.917 | > 10.2 µM | 0.98 | > 10.2 µM
29 | CAMA-1 (breast, adherent) | 0.952 | > 10.2 µM | 0.37 | 0.397 µM | 0.962 | > 10.2 µM | 0.961 | > 10.2 µM
30 | CAPAN-1 (pancreas, adherent) | 0.987 | > 10.2 µM | 0.416 | 0.573 µM | 0.81 | 6.16 µM | 0.986 | > 10.2 µM
31 | CCF-STTG1 (glioma, adherent) | 0.983 | > 10.2 µM | 0.44 | 0.685 µM | 0.985 | > 10.2 µM | 0.988 | > 10.2 µM
